Data taken from the supplement of paper PMC12217912.
The other results are listed elsewhere or left out. The full chains were built here from the parent and the listed change. Inactive controls read about 0.05.

B1: TEV protease; numbered along this chain (parent)
chain: MGESLFKGPRDYNPISSSICHLTNESDGHTTSLYGIGFGPFIITNKHLFRRNNGTLVVQSLHGVFKVKDTTTLQQHLVDGRDMIIIRMPKDFPPFPQKLKFREPQREERICLVTTNFQTKSMSSMVSDTSCTFPSGDGIFWKHWIQTKDGQCGSPLVSTRDGFIVGIHSASNFTNTNNYFTSVPKNFMELLTNQEAQQWVSGWRLNADSVLWGGHKVFMVKPEEPFQPVKEATQL

Variants of: B1
Assay: raw area under fraction-flipped curve 0-4 h after induction (AUC4h, not background-subtracted), DNA-recorder readout of cleavage of the substrate (dimensionless); higher = more cleavage of the substrate by the protease variant
Conditions: temperature: 34 °C; time window: 0-4 h after rhamnose induction
Description: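 In vivo DNA recorder in E. coli TOP10(DE3) ΔrhaA at 34 °C. Each TEVp single-site mutant (parent TEVp 0) is paired with a single-site variant of the 7-mer TEVs (canonical ENLYFQ|S). The substrate sits between flexible linkers in a Bxb1-sfGFP-TEVs-SsrA fusion, so cleavage stabilises Bxb1 and speeds flipping of a recombination array, read by NGS. The value is the raw area under the fraction-flipped curve over 0-4 h after rhamnose induction (AUC4h), with ≥20 reads per time point. It is not background-subtracted; inactive controls average about 0.047.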
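Also: Bxb1 expression induced with 0.2% (w/v) L-rhamnose at OD600 near 0.5, cultures sampled hourly, flipped fraction per protease–substrate barcode pair counted by paired-end Illumina sequencing.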

Row | Variant | area with substrate ENLYFQC | area with substrate ENLYFQD | area with substrate ENLYFQG | area with substrate ENLYFQH | area with substrate ENLYFQK | area with substrate ENLYFQM | area with substrate ENLYFQN | area with substrate ENLYFQS | area with substrate ENLYFQT | area with substrate ENLYFQY | area with substrate ENLYFQI | area with substrate ENLYFQL | area with substrate ENLYFQP | area with substrate ENLYFQQ | area with substrate ENLYFQR | area with substrate ENLYFQV | area with substrate ENLYFQW | area with substrate ENLYFQE | area with substrate ENLYFQF
1 | K142S | 0.115 | 0.0707 | 0.0783 | 0.0745 | 0.0649 | 0.0865 | 0.0799 | 0.0908 | 0.0492 | 0.0774 |  |  |  |  |  |  |  |  | 
2 | H143C | 0.092 |  | 0.117 |  |  | 0.0781 | 0.0705 | 0.0869 | 0.0423 |  | 0.0504 | 0.0562 | 0.0623 | 0.0763 | 0.0586 |  |  |  | 
3 | H143R | 0.077 | 0.0616 | 0.0572 | 0.0472 | 0.0563 | 0.0689 | 0.054 | 0.0583 | 0.0591 | 0.05 |  | 0.0538 | 0.0629 | 0.076 | 0.0561 | 0.0236 | 0.0573 |  | 
4 | I145F | 0.0822 | 0.116 |  |  |  |  |  | 0.0931 |  |  |  | 0.102 |  |  | 0.0475 |  | 0.0767 |  | 
5 | T147E | 0.0549 | 0.0718 | 0.0576 | 0.0623 | 0.0551 | 0.0765 |  | 0.0606 | 0.0566 | 0.0436 | 0.0549 | 0.0591 | 0.0516 |  | 0.0641 |  | 0.0559 | 0.0482 | 
6 | V157A | 0.106 |  |  | 0.0649 |  |  |  | 0.0947 | 0.073 |  | 0.0525 | 0.0199 | 0.0641 |  | 0.0644 | 0.039 | 0.0659 |  | 0.0714
7 | G166R | 0.0428 | 0.0502 | 0.0458 | 0.0475 | 0.0445 | 0.0548 | 0.0473 | 0.0518 | 0.0538 | 0.0373 | 0.0538 |  |  |  | 0.0386 | 0.0465 | 0.043 |  | 0.0491
8 | G166V | 0.0491 | 0.0611 |  | 0.0546 | 0.0449 | 0.045 | 0.0472 | 0.0514 | 0.0582 |  | 0.0491 | 0.0462 | 0.055 |  | 0.0536 |  | 0.0555 |  | 0.0409
9 | I167T | 0.0848 | 0.0561 | 0.086 | 0.0647 | 0.0563 | 0.0557 | 0.0758 | 0.0695 | 0.0573 |  | 0.06 | 0.0585 | 0.0623 |  | 0.0611 | 0.0536 |  |  | 
10 | F173D | 0.0744 | 0.0672 | 0.0744 |  | 0.0606 | 0.0683 | 0.0673 | 0.0794 | 0.0649 | 0.0624 | 0.0574 | 0.0566 | 0.0513 |  | 0.0613 | 0.0691 | 0.0687 | 0.0594 | 0.048
11 | N175C | 0.111 | 0.0667 |  | 0.086 |  | 0.0727 |  | 0.0924 |  | 0.0632 |  | 0.046 | 0.0646 | 0.0684 | 0.0592 | 0.0562 | 0.0618 | 0.06 | 0.0781
12 | F180C | 0.0862 |  |  |  | 0.0643 |  |  | 0.0778 | 0.0589 | 0.0717 | 0.0562 | 0.0516 |  |  | 0.0567 |  |  |  | 
13 | F180V | 0.0514 |  | 0.0639 |  | 0.0807 | 0.0702 | 0.0554 | 0.0585 | 0.055 | 0.0512 | 0.0425 | 0.0533 |  |  | 0.0338 |  | 0.0286 |  | 0.052
14 | T181L | 0.0605 |  | 0.0703 |  |  |  | 0.0561 | 0.0603 | 0.0604 |  |  | 0.0595 | 0.0521 | 0.0155 | 0.0603 |  | 0.0548 |  | 
15 | T181M | 0.069 |  | 0.0739 | 0.0677 | 0.0688 | 0.0603 | 0.0647 | 0.0733 | 0.0506 | 0.0292 | 0.0562 | 0.0494 | 0.0465 |  |  |  | 0.0688 |  | 0.0588
16 | N186M | 0.098 |  |  |  | 0.0451 | 0.0763 | 0.0828 | 0.101 | 0.0716 | 0.0572 |  |  | 0.0798 |  |  | 0.0652 | 0.0628 |  | 
17 | F187E | 0.0673 | 0.0544 | 0.0568 | 0.0681 | 0.0665 | 0.0491 |  | 0.0539 | 0.0438 | 0.0229 | 0.0511 |  | 0.0438 | 0.0416 | 0.0428 |  | 0.0514 |  | 0.0865
18 | F187I | 0.11 | 0.071 |  | 0.0938 | 0.0616 | 0.101 | 0.0609 | 0.105 | 0.0664 |  | 0.0876 | 0.0629 |  |  | 0.063 | 0.0507 |  | 0.071 | 0.0723
19 | A196L | 0.107 | 0.0948 | 0.0531 | 0.099 | 0.0593 | 0.114 | 0.0562 | 0.116 | 0.0748 | 0.0811 | 0.0614 | 0.0642 | 0.0493 |  | 0.0605 | 0.0623 | 0.0621 |  | 0.0903
20 | V200N | 0.075 |  |  | 0.0568 |  |  | 0.0609 | 0.0689 |  |  |  | 0.0601 |  |  | 0.0665 | 0.0622 | 0.0699 |  | 
21 | S201W | 0.088 |  | 0.0831 | 0.0735 | 0.076 | 0.0725 |  | 0.0795 | 0.0611 | 0.0599 | 0.0587 | 0.066 | 0.0537 | 0.0648 | 0.0583 |  | 0.0498 |  | 0.0742
22 | L205W | 0.0841 |  | 0.0662 |  |  |  | 0.063 | 0.092 |  | 0.0616 |  | 0.0281 |  |  | 0.0563 | 0.0618 |  |  | 
